These results are taken from ChEMBL document CHEMBL4888484, “Replenishing the malaria drug discovery pipeline: Screening and hit evaluation of the MMV Hit Generation Library 1 (HGL1) against asexual blood stage Plasmodium falciparum ,using a nano luciferase reporter read-out” (2022).

Hit rate of the full screen: of about 150,000 compounds, about 540 (0.36%) showed an effect of 50% or more. Some of the results follow.

The % Inhibition is the drop in the measured response relative to a control, in per cent.

This experiment has as its system Plasmodium falciparum. Put plainly: Primary screen in NF54 nanoGlo assay, in single point, at 2uM, 72h; a lower Z score goes with more inhibition. Format: functional, Erythrocyte. The note with it: timepoint 72 hour.
Consider `Cc1csc(N2CCC[C@H](C(=O)c3ccccc3)C2)n1`, for which the “% Inhibition” value is reported as -21% and the Z score amounted to 1.91.

In the case of `CC(C)CN(CC(=O)N(Cc1cccn1Cc1ccccc1Cl)C1CCCCC1)C(=O)c1cccc2ccccc12`, the “% Inhibition” value is 4% and the Z score is recorded as -0.69.

Regarding `COc1ccc(CNC(=O)N(Cc2ccco2)C2CCOCC2)cc1`, the “% Inhibition” value is on record as -7% and the Z score was 1.08.

In the case of `C[C@@H](CN(C)C(=O)c1ccccc1-c1cncnc1)c1ccccc1`, the “% Inhibition” value is reported as -5% and the Z score is reported as 0.44.

Take `CC(NCC1CCc2nncn2C1)c1nc(-c2cccs2)no1` (centres undefined): the “% Inhibition” value was -3% and the Z score is on record as 0.26.

As to `Cc1cnn(CCN(Cc2coc(-c3cccs3)n2)Cc2coc(-c3cccs3)n2)c1`, the “% Inhibition” value was -1% and the Z score is reported as 0.17.

In the case of `CC#CC(=O)N1CCC([C@]2(CCc3ccccc3)NC(=O)N(CCN(C)C)C2=O)CC1`, the “% Inhibition” value is recorded as -6% and the Z score came to 0.67.

For `Cc1nncn1CCN(C)Cc1nc(CC(C)C)no1`, the “% Inhibition” value is on record as -14% and the Z score is listed as 1.82.

Consider `C=CCn1cc(CN2CCN(c3ncc(Cl)cn3)CC2)c(C)n1`, for which the “% Inhibition” value is given as 1% and the Z score is given as -0.17.

`CCN1CCN(C(=O)CCN(CCCN2CCOCC2)c2nc(-c3ccccc3Cl)nc3ccccc23)CC1`: the “% Inhibition” value was 2% and the Z score was -0.22.

In the case of `O=C(N[C@H]1CC[C@H](O)CC1)c1ccccc1NCc1ccco1`, the “% Inhibition” value was -4% and the Z score is listed as 0.63.

Consider `Cc1cc(C(=O)NCC2(Cn3cccn3)CC2)c2ccc(C)c(C)c2n1`, for which the “% Inhibition” value was determined as 0% and the Z score is recorded as -0.02.

Regarding `OC1CCC2CN(c3ncc(Cl)c(N4CC5CCC(O)C5C4)n3)CC12` (centres undefined), the “% Inhibition” value was 40% and the Z score was -5.8.

Turning to `COc1ccc(CN2C[C@@H]3NCCO[C@H]3C2)cc1Cn1cccn1`, the “% Inhibition” value is on record as -16% and the Z score was found to be 1.59.

In the case of `CCn1nc(C(=O)N2CCC2)c2ccccc2c1=O`, the “% Inhibition” value is given as -10% and the Z score came out at 1.83.

In the case of `CC(C)c1nc(CNc2cc(C(F)(F)F)cc3c2OCC(=O)N3)cs1`, the “% Inhibition” value was 1% and the Z score is -0.2.

In the case of `O=C1CCCC1C1COCCN1C(=O)c1cc2c(F)cc(Br)cc2[nH]1` (centres undefined), the “% Inhibition” value is -6% and the Z score stood at 0.79.

Consider `O=C(O)c1c(S(=O)(=O)N2CC[C@H]3CCCC[C@H]3C2)sc2c1CCNC2`, for which the “% Inhibition” value is recorded as -10% and the Z score was 1.18.

On to `Cc1ccc(Cc2nc(N3CCCN(C(=O)COc4ccccc4)CC3)c3c(C)nn(-c4ccccc4)c3n2)cc1`, for which the “% Inhibition” value is recorded as -15% and the Z score was determined as 2.51.

As for `CCNc1nnc(-c2cc(C)n(C)n2)s1`, the “% Inhibition” value was -5% and the Z score is given as 0.59.

Take `OC[C@@H]1C[C@H](F)CN1Cc1ccncc1F`: the “% Inhibition” value is -3% and the Z score came to 0.41.

As to `CCN1C(=O)CCc2cc(C(=O)N3CCCCC3)ccc21`, the “% Inhibition” value amounted to 0% and the Z score is given as -0.05.

Regarding `CC(=O)Nc1ccc(-c2cn3c4ccccc4ccc3[n+]2C)cc1`, the “% Inhibition” value came out at 87% and the Z score is given as -10.86.

Regarding `O=C(CCN1CCCC1=O)Nc1cnn(-c2ccccc2)n1`, the “% Inhibition” value is recorded as -18% and the Z score was determined as 2.39.

`Cc1ccc(S(=O)(=O)NCc2ccc(N3CCCC3)cc2)cc1`: the “% Inhibition” value worked out at 2% and the Z score is reported as -0.34.

With `COc1ccc(CCNC(=O)[C@H](C)n2nnc3ccccc32)cc1OC`, the “% Inhibition” value was determined as 9% and the Z score is -1.6.

Turning to `OC[C@@H]1O[C@H](CNCc2ccc(F)cc2)[C@H](N2CCN(c3ncccn3)CC2)[C@@H]1O`, the “% Inhibition” value is reported as -8% and the Z score is 1.34.

As for `CC1CC(NCCCNc2ccccc2)c2ncnn21` (centres undefined), the “% Inhibition” value is recorded as -1% and the Z score turned out to be 0.22.

On to `Cc1cc(CN2CCC3(CCC(=O)N(CCc4ccncc4)C3)CC2)on1`, for which the “% Inhibition” value is listed as -9% and the Z score was 1.16.

Regarding `O=C(CC1(N2Cc3ccccc3C2=O)CCCCC1)NCc1ccccc1`, the “% Inhibition” value is on record as -10% and the Z score came out at 1.5.

With `Cc1ccc(-c2ccnn2C)cc1NC(=O)Nc1cc[nH]n1`, the “% Inhibition” value is -5% and the Z score came out at 0.66.

Turning to `FC(F)(F)c1nnc2ccc(N3CCn4ccnc4C3)nn12`, the “% Inhibition” value is -2% and the Z score came to 0.37.

Consider `O=C(Nc1nc(C(=O)NCC(F)(F)F)co1)c1ccsc1`, for which the “% Inhibition” value is recorded as 11% and the Z score is recorded as -1.54.

Take `C#CCN(C(=O)CNC(=O)c1cccc(OC)c1)C1CCCC1`: the “% Inhibition” value is given as 11% and the Z score is -1.25.

For `CCCCC(C(=O)Nc1cc(C)on1)N1CCCC(c2ccn[nH]2)C1` (centres undefined), the “% Inhibition” value was -6% and the Z score is 1.18.

With `Cc1ccc(-n2c(=O)c3sccc3n(CC(=O)NCc3ccccc3Cl)c2=O)cc1F`, the “% Inhibition” value was -10% and the Z score is reported as 1.12.

Turning to `O=C(c1ccc2cccc(Cl)c2n1)N1CC[C@H](N2CCC(O)CC2)[C@@H](O)C1`, the “% Inhibition” value was -17% and the Z score was determined as 2.39.

As to `Cc1ccc(S(C)(=O)=O)c(NC(=O)N(C)CC2CC2)c1`, the “% Inhibition” value came to 17% and the Z score was -2.02.

In the case of `O=C1CCc2cc(C(=O)N3CCC4(CCC4)CC3)ccc2N1`, the “% Inhibition” value is given as -13% and the Z score amounted to 1.46.

As to `COc1ccc(F)c(CN2CCC[C@@]3(CCN(C(=O)c4cc5ccccc5[nH]4)C3)C2)c1`, the “% Inhibition” value is recorded as -10% and the Z score is listed as 0.91.

As to `O=C(c1ccc(Cl)cc1)N1C[C@@H]2CC[C@H]1CN(Cc1cscn1)C2`, the “% Inhibition” value is listed as -12% and the Z score is listed as 1.32.

As for `Cc1cc(C)n(Cc2cc(C(=O)NCc3ccon3)n[nH]2)n1`, the “% Inhibition” value is listed as 13% and the Z score was -1.66.
